These results are taken from the supplement of paper PMC6451100.

The other results are listed elsewhere or left out. These are enrichments in a pooled selection; single values are uncertain.
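Note: Per-sequence enrichment computed with FASTAptamer, counting only reads that carry the expected constant 3′ region.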

The target of the test is T1, Drosophila AGO2 (FLAG-tagged, S2-R+ lysate) (UniProt Q9VUQ5).
T1 sequence: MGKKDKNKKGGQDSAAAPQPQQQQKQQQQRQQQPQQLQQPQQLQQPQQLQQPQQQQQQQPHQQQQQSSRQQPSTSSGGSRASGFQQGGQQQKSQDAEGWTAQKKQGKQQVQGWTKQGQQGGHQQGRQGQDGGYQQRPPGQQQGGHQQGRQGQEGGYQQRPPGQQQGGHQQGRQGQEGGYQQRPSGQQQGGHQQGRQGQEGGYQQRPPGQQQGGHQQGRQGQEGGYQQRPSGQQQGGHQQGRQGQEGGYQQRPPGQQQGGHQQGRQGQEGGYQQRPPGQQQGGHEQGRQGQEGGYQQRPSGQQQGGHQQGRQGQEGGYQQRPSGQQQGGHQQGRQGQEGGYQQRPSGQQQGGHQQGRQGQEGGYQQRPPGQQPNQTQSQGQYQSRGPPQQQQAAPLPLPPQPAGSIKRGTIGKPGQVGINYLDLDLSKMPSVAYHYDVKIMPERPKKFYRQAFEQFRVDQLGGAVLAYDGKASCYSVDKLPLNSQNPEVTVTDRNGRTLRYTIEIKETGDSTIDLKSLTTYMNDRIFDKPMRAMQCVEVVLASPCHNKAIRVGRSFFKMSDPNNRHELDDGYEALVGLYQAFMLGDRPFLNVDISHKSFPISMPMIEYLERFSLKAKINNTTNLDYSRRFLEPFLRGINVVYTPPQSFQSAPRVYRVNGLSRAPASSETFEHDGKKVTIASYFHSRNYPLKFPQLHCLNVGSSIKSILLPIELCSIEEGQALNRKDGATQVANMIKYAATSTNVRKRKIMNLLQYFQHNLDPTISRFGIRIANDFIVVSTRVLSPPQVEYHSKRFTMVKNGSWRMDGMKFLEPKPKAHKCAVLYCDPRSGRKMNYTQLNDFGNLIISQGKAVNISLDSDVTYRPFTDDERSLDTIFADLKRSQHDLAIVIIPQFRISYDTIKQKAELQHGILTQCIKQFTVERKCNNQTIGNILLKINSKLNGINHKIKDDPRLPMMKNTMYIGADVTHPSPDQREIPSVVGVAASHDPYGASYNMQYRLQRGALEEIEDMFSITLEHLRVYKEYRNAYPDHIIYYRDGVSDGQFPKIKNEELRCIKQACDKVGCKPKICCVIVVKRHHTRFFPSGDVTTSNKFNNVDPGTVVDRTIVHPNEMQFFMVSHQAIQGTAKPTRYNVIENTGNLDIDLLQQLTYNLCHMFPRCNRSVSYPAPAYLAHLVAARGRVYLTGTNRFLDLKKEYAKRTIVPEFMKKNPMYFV
Nature of the test: AGO2 loading enrichment factor (IP read count / input read count, not library-size normalised) (ratio); higher = more efficient loading into AGO2. Particulars: randomized region: 5' 5N of miR-317 loop.
In the case of AAGGGTGAAATGCAAGCAAG, the “AGO2 loading enrichment factor” value came out at 1.88.
As for GACTTTGAAATGCAAGCAAG, the figure is 0.248; as for TAAACTGAAATGCAAGCAAG, 0.373; as for TTCGCTGAAATGCAAGCAAG, 0.246.
As for ATTGTTGAAATGCAAGCAAG, the figure is 0.33.
As for ATACATGAAATGCAAGCAAG, the figure is 0.483; as for GGCACTGAAATGCAAGCAAG, 0.386; as for ATCGCTGAAATGCAAGCAAG, 0.147.
For the sequence CGGTATGAAATGCAAGCAAG, the “AGO2 loading enrichment factor” value turned out to be 0.44.
As for CAAGATGAAATGCAAGCAAG, the figure is 0.325.
As for TGTGGTGAAATGCAAGCAAG, the figure is 0.659; as for AATACTGAAATGCAAGCAAG, 0.298.
As for GCATGTGAAATGCAAGCAAG, the figure is 0.0342; as for GCAACTGAAATGCAAGCAAG, 0.208; as for AGATGTGAAATGCAAGCAAG, 0.317.
As to GTAGTTGAAATGCAAGCAAG, the “AGO2 loading enrichment factor” value came to 0.411.
As for AATCATGAAATGCAAGCAAG, the figure is 0.448; as for TTCCCTGAAATGCAAGCAAG, 0.631.
As for CATGTTGAAATGCAAGCAAG, the figure is 0.175; as for TAGACTGAAATGCAAGCAAG, 0.279.
As for CAGGGTGAAATGCAAGCAAG, the figure is 1.58.
Turning to ACAGTTGAAATGCAAGCAAG, the “AGO2 loading enrichment factor” value is 0.376.
As for AGTTATGAAATGCAAGCAAG, the figure is 0.383; as for ACGGCTGAAATGCAAGCAAG, 0.155; as for GAATTTGAAATGCAAGCAAG, 0.433.
As for GACCATGAAATGCAAGCAAG, the figure is 0.68; as for TCTGATGAAATGCAAGCAAG, 0.374; as for TAAGCTGAAATGCAAGCAAG, 0.104.
With GAGGTTGAAATGCAAGCAAG, the “AGO2 loading enrichment factor” value turned out to be 1.32.
As for CACGCTGAAATGCAAGCAAG, the figure is 0.0801; as for AAGGCTGAAATGCAAGCAAG, 0.095; as for TTCTGTGAAATGCAAGCAAG, 0.626.
As for ACAAGTGAAATGCAAGCAAG, the figure is 0.377; as for CCCACTGAAATGCAAGCAAG, 0.214; as for GGAACTGAAATGCAAGCAAG, 0.645.
Take GATTATGAAATGCAAGCAAG: the “AGO2 loading enrichment factor” value was determined as 0.42.
As for CACACTGAAATGCAAGCAAG, the figure is 0.367.
Consider TGCGATGAAATGCAAGCAAG, for which the “AGO2 loading enrichment factor” value was 0.29.
With CCCTTTGAAATGCAAGCAAG, the “AGO2 loading enrichment factor” value is 0.385.
TCTCCTGAAATGCAAGCAAG: the “AGO2 loading enrichment factor” value was 1.1.
As for TCTTCTGAAATGCAAGCAAG, the figure is 0.415; as for TAGAGTGAAATGCAAGCAAG, 0.462; as for CGAGTTGAAATGCAAGCAAG, 0.33.
On to AAGCCTGAAATGCAAGCAAG, for which the “AGO2 loading enrichment factor” value was 0.18.
With CTAGATGAAATGCAAGCAAG, the “AGO2 loading enrichment factor” value is 0.341.
As for CAGATTGAAATGCAAGCAAG, the figure is 0.29; as for TCTAGTGAAATGCAAGCAAG, 0.39; as for ACAGATGAAATGCAAGCAAG, 0.422.
As for CAATGTGAAATGCAAGCAAG, the figure is 0.245.
As for GGAGGTGAAATGCAAGCAAG, the figure is 6.89; as for TACGTTGAAATGCAAGCAAG, 0.372.
On to GATAGTGAAATGCAAGCAAG, for which the “AGO2 loading enrichment factor” value turned out to be 0.456.
As for CCCGCTGAAATGCAAGCAAG, the figure is 0.102; as for CATGATGAAATGCAAGCAAG, 0.266; as for AAGTCTGAAATGCAAGCAAG, 0.32.
As for CCAGTTGAAATGCAAGCAAG, the figure is 0.327.
With TCATCTGAAATGCAAGCAAG, the “AGO2 loading enrichment factor” value was found to be 0.322.
As for TCGTCTGAAATGCAAGCAAG, the figure is 0.355; as for CTCCCTGAAATGCAAGCAAG, 0.569; as for GCGAGTGAAATGCAAGCAAG, 0.0744.
As for GGTTATGAAATGCAAGCAAG, the figure is 0.561; as for GGCCATGAAATGCAAGCAAG, 1.53; as for CCGTTTGAAATGCAAGCAAG, 0.139.
As for TCGGGTGAAATGCAAGCAAG, the figure is 2.33; as for TGAGGTGAAATGCAAGCAAG, 1.2.
Consider ATGCGTGAAATGCAAGCAAG, for which the “AGO2 loading enrichment factor” value was 0.375.
As for ATCGATGAAATGCAAGCAAG, the figure is 0.409.
Regarding AAGATTGAAATGCAAGCAAG, the “AGO2 loading enrichment factor” value was 0.348.
As for GTGGCTGAAATGCAAGCAAG, the figure is 0.364; as for TCTACTGAAATGCAAGCAAG, 0.377; as for ATCGTTGAAATGCAAGCAAG, 0.358.
For GATCTTGAAATGCAAGCAAG, the “AGO2 loading enrichment factor” value is 0.139.
As for AAAAGTGAAATGCAAGCAAG, the figure is 0.366.
As for GCCCTTGAAATGCAAGCAAG, the figure is 0.433; as for CAACGTGAAATGCAAGCAAG, 0.338; as for CGCTATGAAATGCAAGCAAG, 0.375.
Turning to CAATATGAAATGCAAGCAAG, the “AGO2 loading enrichment factor” value was 0.444.
As to CACCATGAAATGCAAGCAAG, the “AGO2 loading enrichment factor” value worked out at 0.551.
As for AATCTTGAAATGCAAGCAAG, the figure is 0.0764; as for CGGCCTGAAATGCAAGCAAG, 0.374.
As for TGCAATGAAATGCAAGCAAG, the “AGO2 loading enrichment factor” value amounted to 0.123.
As for GTCCCTGAAATGCAAGCAAG, the figure is 0.356; as for TACTTTGAAATGCAAGCAAG, 0.264.
Turning to TCACGTGAAATGCAAGCAAG, the “AGO2 loading enrichment factor” value turned out to be 0.523.
As for CCGGCTGAAATGCAAGCAAG, the figure is 0.208.
Consider CAACTTGAAATGCAAGCAAG, for which the “AGO2 loading enrichment factor” value came out at 0.098.
Turning to TGTATTGAAATGCAAGCAAG, the “AGO2 loading enrichment factor” value is 0.285.
Take CTGAGTGAAATGCAAGCAAG: the “AGO2 loading enrichment factor” value was 0.484.
As for GCCATTGAAATGCAAGCAAG, the figure is 0.379; as for CAACCTGAAATGCAAGCAAG, 0.25.
On to TTGGGTGAAATGCAAGCAAG, for which the “AGO2 loading enrichment factor” value amounted to 1.41.
As for CTGTATGAAATGCAAGCAAG, the figure is 0.306; as for GGTAGTGAAATGCAAGCAAG, 0.969; as for TTTTTTGAAATGCAAGCAAG, 0.398.
For the sequence TGCACTGAAATGCAAGCAAG, the “AGO2 loading enrichment factor” value was found to be 0.15.
With CAAGCTGAAATGCAAGCAAG, the “AGO2 loading enrichment factor” value is 0.063.
As for TTTGATGAAATGCAAGCAAG, the figure is 0.738; as for CTTGGTGAAATGCAAGCAAG, 0.0502.
As for AGCCTTGAAATGCAAGCAAG, the figure is 0.147.
